According to a collection of fitness landscapes (doi:10.1038/s41467-024-54723-y):
Whole data set: some 18,000 sequences, median “TetR repression strength (sort-seq, GFP reporter)” near 0.23, cut for the highest 2% near 0.68. Some of the results follow.

Target: TetR (class B, Tn10) (UniProt P04483)
Assay: TetR repression strength (sort-seq, GFP reporter) (relative to tetO2 = 1); higher = stronger repression
Conditions: E. coli
Procedure, shortened: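 Repression strength was calculated by subtracting the read-weighted mean bin from the top bin index plus one and dividing by the unaltered operator's value. The plasmid library was low-copy in E. coli SIG10-MAX, with eight randomized operator positions between a constitutive promoter and sfGFP and constitutive TetR. Cultures grew 5 h at 37 °C in LB containing 50 µg/mL chloramphenicol before 10^6 cells were sorted by FACS into 13 fluorescence bins, each sequenced on Illumina. Three independent transformations were averaged for members having ≥30 reads in all replicates and a CV ≤0.5.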

UniProt P04483, sequence (P04483 whole entry): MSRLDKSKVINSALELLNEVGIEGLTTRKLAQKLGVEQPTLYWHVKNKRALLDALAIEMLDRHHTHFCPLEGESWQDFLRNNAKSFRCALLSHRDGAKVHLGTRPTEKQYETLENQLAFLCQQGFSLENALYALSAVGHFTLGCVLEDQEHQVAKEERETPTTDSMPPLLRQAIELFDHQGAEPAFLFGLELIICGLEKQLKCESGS

Sequence	TetR repression strength
TCCCGGTCAGTGGTGGAGA	0.24
TCCCCAGCAGTGTGCGAGA	0.179
TCCCTGACAGTAATGGAGA	0.0821
TCCCGGCGAGTCCGCGAGA	0.325
TCCCTCCCAGTGTCGGAGA	0.295
TCCCTGTGAGTTGTAGAGA	0.231
TCCCTGGTAGTGGAGGAGA	0.101
TCCCCTAAAGTCAAAGAGA	0.429
TCCCTTCGAGTTTACGAGA	0.464
TCCCGTAAAGTGTGTGAGA	0.128
TCCCGGTAAGTGAGCGAGA	0.199
TCCCTGGGAGTTCGTGAGA	0.297
TCCCTACCAGTGTGTGAGA	0.211
TCCCAGCTAGTTTGCGAGA	0.165
TCCCTGTTAGTGGAGGAGA	0.142
TCCCGTAGAGTGTGTGAGA	0.151
TCCCGTACAGTTGAAGAGA	0.233
TCCCATTCAGTCGTGGAGA	0.352
TCCCTCTTAGTTCGAGAGA	0.27
TCCCCTCTAGTACAAGAGA	0.55
TCCCTGGGAGTTCCGGAGA	0.165
TCCCGCTTAGTCCTCGAGA	0.44
TCCCTATGAGTTTTTGAGA	0.256
TCCCGGGAAGTGGGTGAGA	0.22
TCCCTTCGAGTTTTAGAGA	0.572
TCCCAATAAGTTTCGGAGA	0.346

Sequence	TetR repression strength
TCCCCCGTAGTTTCAGAGA	0.496
TCCCATGGAGTGGGAGAGA	0.033
TCCCCTAGAGTACCAGAGA	0.0608
TCCCGTGCAGTTACAGAGA	0.175
TCCCGGTGAGTAGGGGAGA	0.198
TCCCAGGAAGTGTACGAGA	0.425
TCCCTATTAGTCCCAGAGA	0.32
TCCCACCGAGTGTTGGAGA	0.286
TCCCGGGGAGTCTGCGAGA	0.395
TCCCGTGTAGTTTTGGAGA	0.213
TCCCCCTCAGTGGCGGAGA	0.127
TCCCCGTTAGTGTGTGAGA	0.196
TCCCCGACAGTGCTAGAGA	0.65
TCCCTTGGAGTATGGGAGA	0.272
TCCCAAGGAGTGGTCGAGA	0.05
TCCCTGTAAGTTGTTGAGA	0.427
TCCCATAAAGTGGAGGAGA	0.178
TCCCGAGCAGTGCAGGAGA	0.226
TCCCGACGAGTGCCGGAGA	0.292
TCCCCAGGAGTAGGCGAGA	0.207
TCCCGGTCAGTCAGAGAGA	0.466
TCCCTACTAGTTTCCGAGA	0.394
TCCCGAGAAGTAGACGAGA	0.15
TCCCTCTGAGTCTGTGAGA	0.531
TCCCTGGTAGTCCATGAGA	0.277
TCCCCGCTAGTAGGCGAGA	0.0667

Sequence	TetR repression strength
TCCCGTTTAGTTATAGAGA	0.384
TCCCCGGAAGTGAAAGAGA	0.0806
TCCCTGCTAGTATAGGAGA	0.227
TCCCTCAAAGTTAATGAGA	0.507
TCCCGCCGAGTCGGGGAGA	0.191
TCCCAACTAGTTGTGGAGA	0.388
TCCCTCAAAGTCAACGAGA	0.356
TCCCAATCAGTCATTGAGA	0.448
TCCCGGGCAGTGAATGAGA	0.315
TCCCAGCCAGTGCAAGAGA	0.475
TCCCGGATAGTGGGCGAGA	0.164
TCCCCATAAGTGGTGGAGA	0.161
TCCCTACTAGTGCGTGAGA	0.405
TCCCCGGGAGTAACAGAGA	0.332
TCCCGTATAGTCCGGGAGA	0.12
TCCCTTTAAGTTCACGAGA	0.199
TCCCCGTAAGTTGGGGAGA	0.262
TCCCGGGGAGTAACGGAGA	0.108
TCCCACATAGTACGAGAGA	0.00864
TCCCCAGCAGTAGATGAGA	0.253
TCCCATAGAGTCGGCGAGA	0.142
TCCCCTACAGTTACGGAGA	0.104
TCCCTGAAAGTAATGGAGA	0.239
TCCCTGGTAGTGGGCGAGA	0.276
TCCCCCTAAGTTTCGGAGA	0.294
TCCCCATAAGTCTCCGAGA	0.354

Sequence	TetR repression strength
TCCCAAAGAGTGCGTGAGA	0.272
TCCCGAACAGTGTGTGAGA	0.161
TCCCCTCGAGTGCGGGAGA	0.0179
TCCCGACTAGTCTTAGAGA	0.304
TCCCAGCTAGTGCAAGAGA	0.388
TCCCTAGCAGTCGCTGAGA	0.0944
TCCCTTTAAGTGCGGGAGA	0.254
TCCCAAGGAGTTTGTGAGA	0.286
TCCCACGGAGTCTGCGAGA	0.104
TCCCATCGAGTTTAGGAGA	0.179
TCCCTACTAGTTGCCGAGA	0.326
TCCCTATGAGTGTCGGAGA	0.132
TCCCCCTCAGTATGAGAGA	0.514
TCCCATTTAGTGGCAGAGA	0.215
TCCCTGACAGTAACGGAGA	0.192
TCCCCGTCAGTCACCGAGA	0.65
TCCCTATCAGTAAAGGAGA	0.319
TCCCGGCCAGTGAGGGAGA	0.268
TCCCGGAGAGTTATTGAGA	0.278
TCCCGACCAGTGGTAGAGA	0.297
TCCCCTCAAGTGGGTGAGA	0.24
TCCCAACCAGTCTGGGAGA	0.104
TCCCAGGGAGTGACAGAGA	0.294
TCCCCGGTAGTTTTGGAGA	0.253
TCCCCACTAGTAAGGGAGA	0.266
TCCCGAGCAGTGCGGGAGA	0.473

Sequence	TetR repression strength
TCCCGTGTAGTGCTGGAGA	0.267
TCCCTCGAAGTGCTGGAGA	0.281
TCCCAGAGAGTAGCAGAGA	0.294
TCCCAAAGAGTTTGGGAGA	0.357
TCCCACTAAGTGTGAGAGA	0.253
TCCCAGACAGTATTGGAGA	0.299
TCCCGTGCAGTTCGGGAGA	0.295
TCCCCCGCAGTTCCAGAGA	0.328
TCCCCATCAGTTTGGGAGA	0.269
TCCCGTCAAGTTGGAGAGA	0.211
TCCCTAGGAGTAGCGGAGA	0.193
TCCCAGATAGTTTATGAGA	0.167
TCCCTACTAGTCCTCGAGA	1.12
TCCCGAGGAGTGATGGAGA	0.35
TCCCGAACAGTGTAGGAGA	0.0968
TCCCAAGGAGTTTCTGAGA	0.319
TCCCCGTCAGTCATGGAGA	0.12
TCCCCTCAAGTACGTGAGA	0.227
TCCCATTTAGTGACGGAGA	0.255
TCCCAAGAAGTGGTTGAGA	0.184
TCCCGGGGAGTCGTTGAGA	0.482
TCCCGACGAGTGATAGAGA	0.619
TCCCGTAAAGTCTCCGAGA	0.269
TCCCCGCTAGTTGGGGAGA	0.0652
TCCCGAAGAGTAGGTGAGA	0.304
TCCCAACAAGTTGGGGAGA	0.256

Sequence	TetR repression strength
TCCCGAACAGTTAATGAGA	0.395
TCCCAGCTAGTGTGGGAGA	0.141
TCCCAAGCAGTCCAAGAGA	0.513
TCCCGCATAGTAATGGAGA	0.384
TCCCGGGCAGTTCGGGAGA	0.23
TCCCAGTCAGTAGGCGAGA	0.16
TCCCTCGTAGTAAGCGAGA	0.128
TCCCTAGTAGTAAGGGAGA	0.196
TCCCGACAAGTAGTGGAGA	0.347
TCCCTCCGAGTAGGTGAGA	0.222
TCCCTATCAGTAGGGGAGA	0.529
TCCCTATCAGTCCGGGAGA	0.445
TCCCCGTAAGTTGTAGAGA	0.111
TCCCCCTCAGTGTCGGAGA	0.169
TCCCAGTAAGTTCATGAGA	0.326
TCCCAGGGAGTTCTGGAGA	0.274
TCCCATACAGTCATTGAGA	0.0677
TCCCTGCAAGTGTGCGAGA	0.0377
TCCCGTCAAGTGTAGGAGA	0.138
TCCCGAGTAGTTGTAGAGA	0.262
TCCCGGAGAGTTGCGGAGA	0.189
TCCCAGGGAGTGAGAGAGA	0.211
TCCCGGCTAGTTCCGGAGA	0.172
TCCCCTGCAGTGCGCGAGA	0.0207
TCCCACTGAGTGATTGAGA	0.279
TCCCCGGGAGTTGGAGAGA	0.508

Sequence	TetR repression strength
TCCCTTGAAGTTGTCGAGA	0.0283
TCCCGTGTAGTATAAGAGA	0.212
TCCCATGTAGTTTGGGAGA	0.203
TCCCGGCGAGTGGGGGAGA	0.193
TCCCATGGAGTGCGGGAGA	0.415
TCCCCAAGAGTATGGGAGA	0.124
TCCCTTCCAGTGTTTGAGA	0.385
TCCCATAGAGTTGAGGAGA	0.138
TCCCTCGGAGTAGTTGAGA	0.14
TCCCATGAAGTTTTTGAGA	0.0346
TCCCTGTTAGTGATGGAGA	0.0597
TCCCTATCAGTACGGGAGA	0.226
TCCCGGGTAGTACGGGAGA	0.0586
TCCCTCCGAGTATTGGAGA	0.261
TCCCTGGCAGTGCGGGAGA	0.0871
TCCCGCGCAGTCGTAGAGA	0.241
TCCCGGCAAGTGCATGAGA	0.453
TCCCAGTCAGTTAGAGAGA	0.00901
TCCCGTTCAGTTTGTGAGA	0.145
TCCCGTGCAGTTACGGAGA	0.183
TCCCGGTGAGTACGGGAGA	0.291
TCCCGATGAGTGGGTGAGA	0.203
TCCCTGTTAGTGGACGAGA	0.343
TCCCTTCTAGTTAAGGAGA	0.283
TCCCTCTTAGTGATAGAGA	0.345
TCCCGTAGAGTAATGGAGA	0.344

Sequence	TetR repression strength
TCCCAGCTAGTGAAAGAGA	0.441
TCCCAAAAAGTTTGGGAGA	0.095
TCCCCTGTAGTCGGTGAGA	0.19
TCCCCCCGAGTCGACGAGA	0.239
TCCCGCGGAGTATTGGAGA	0.191
TCCCCGGTAGTTTGAGAGA	0.302
TCCCGGCCAGTCGGTGAGA	0.269
TCCCATTAAGTCGGAGAGA	0.38
TCCCGCTAAGTTCGGGAGA	0.246
TCCCACTCAGTCCGGGAGA	0.204
TCCCGACCAGTAAGAGAGA	0.138
TCCCGATTAGTTTTCGAGA	0.245
TCCCAGCGAGTGGAGGAGA	0.172
TCCCTTGGAGTCGTTGAGA	0.304
TCCCATATAGTAAGCGAGA	0.207
TCCCAGCCAGTTCACGAGA	0.281
TCCCGGGAAGTTCGCGAGA	0.104
TCCCGTAAAGTTTGAGAGA	0.298
TCCCTTGTAGTATCGGAGA	0.257
TCCCTCTCAGTTGAAGAGA	0.18
TCCCGCCAAGTAAAAGAGA	0.298
TCCCCATAAGTGTTTGAGA	0.242
